Measured values reported in PubChem BioAssay (NCATS).
Values joined by “and” are separate entries in the source; they are usually repeats but may differ in a detail not shown here. Equal values may be shown once. Inconclusive results, whose numbers are uncertain, are shown with a selection of clear calls. For some assays here: Where the call is inconclusive, the potency comes from a doubtful curve fit. Active and inactive are the calls of the source. The call rests on the fitted dose curve; in most records, active means well fitted curve in the direction sought with a large enough effect; inconclusive means small, poorly fitted or top-dose-only effect, or another doubt; inactive means no such curve, though single readings can be large; an effect the other way counts as inactive or inconclusive.

Tests used:
[1] = Primary qHTS for inhibitors of nuclear receptor binding SET domain protein 2 (NSD2) in an isogenic RCH-ACV NSD2 p.E1099K mutant (9B) (AID 1645876); further: nearly all actives have a fitted effect of over 70% in size; further: potency means the concentration at half of the fitted maximal effect; on activity change, negative = viability loss: on the % scale 0 is the no-effect control and ±100 the full control effect
[2] = Primary qHTS for inhibitors of nuclear receptor binding SET domain protein 2 (NSD2) in an RCH-ACV wild type WT cells (2C) (AID 1645877); conditions: activity change, negative = cell killing: at 44.9 µM (top of the series); further: nearly all actives have a fitted effect of over 70% in size; further: potency means the concentration at half of the fitted maximal effect; on activity change, negative = cell killing: on the % scale 0 is the no-effect control and ±100 the full control effect
[3] = test system: CRL-7250; assay: Cytotoxic Profiling of Annotated Libraries Using Quantitative High-Throughput Screening (AID 1296008); conditions: Five cell lines viability, CellTiter-Glo ATP luminescence, 48-72 h; max response: hits give low values; further: nearly all actives have a fitted effect of over 60% in size; further: potency means the concentration at half of the fitted maximal effect; on max response: on the % scale 0 is the no-effect control and ±100 the full control effect
How it was run: (§1)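 Compounds were pin-transferred onto cells and incubated 48 or 72 hr at 37 degree Celsius, 95% humidity. CellTiter-Glo was added, plates sat 10 min at room temperature, then ATP-coupled luminescence was imaged as the viability read-out.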

[4] = test system: HEK293; assay: as above; conditions: Five cell lines viability, CellTiter-Glo ATP luminescence, 48-72 h; max response: hits give low values
How it was run: as §1

[5] = test system: C33A; assay: Primary qHTS to identify gynecologic anti-cancer compounds using libraries of approved drugs and bioactive compounds (AID 1345084); conditions: Gynecologic cancer cell panel viability, ATPlite luminescence, 48 h; series mostly up to 57.5 µM; further: nearly all actives have a fitted effect of over 55% in size; further: potency means the concentration at half of the fitted maximal effect; on activity change, negative = cytotoxicity: on the % scale 0 is the no-effect control and ±100 the full control effect
How it was run: (§2)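 Cytotoxicity screen measuring ATP content by luciferase luminescence. Each compound is applied at five concentrations for 48 h at 37 C with 5% CO2.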

[6] = test system: CAOV3; assay: as above; conditions: Gynecologic cancer cell panel viability, ATPlite luminescence, 48 h; series mostly up to 57.5 µM
How it was run: as §2

[7] = test system: Hek293T; assay: as above; conditions: Gynecologic cancer cell panel viability, ATPlite luminescence, 48 h, control line for the selectivity index; series mostly up to 57.5 µM
How it was run: as §2

[8] = test system: SKOV3; assay: as above; conditions: Gynecologic cancer cell panel viability, ATPlite luminescence, 48 h; series mostly up to 57.5 µM
How it was run: as §2

[9] = P-glycoprotein substrates identified in KB-8-5-11 adenocarcinoma cell line, qHTS therapeutic library screen (AID 1346987); further: potency means the concentration at half of the fitted maximal effect; nearly all actives have a fitted effect of over 65% in size
How it was run: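 In this qHTS, P-gp-rich KB-8-5-11 cells received library compounds across a concentration range. Viability was quantified by luminescence after 72 h at 37 degree C.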

[10] = test system: Es-2; assay: Primary qHTS to identify gynecologic anti-cancer compounds using libraries of approved drugs and bioactive compounds (AID 1345084); conditions: Gynecologic cancer cell panel viability, ATPlite luminescence, 48 h; series mostly up to 57.5 µM; further: nearly all actives have a fitted effect of over 55% in size; further: potency means the concentration at half of the fitted maximal effect
How it was run: as §2

[11] = test system: HeLa; assay: as above; conditions: Gynecologic cancer cell panel viability, ATPlite luminescence, 48 h; series mostly up to 57.5 µM
How it was run: as §2

[12] = test system: JEG-3; assay: as above; conditions: Gynecologic cancer cell panel viability, ATPlite luminescence, 48 h; series mostly up to 57.5 µM
How it was run: as §2

[13] = test system: OV90; assay: as above; conditions: Gynecologic cancer cell panel viability, ATPlite luminescence, 48 h; series mostly up to 57.5 µM
How it was run: as §2

[14] = test system: PA-1; assay: as above; conditions: Gynecologic cancer cell panel viability, ATPlite luminescence, 48 h; series mostly up to 57.5 µM
How it was run: as §2

[15] = test system: Tov-21-G; assay: as above; conditions: Gynecologic cancer cell panel viability, ATPlite luminescence, 48 h; activity change, negative = cytotoxicity: at 57.5 µM (top of the series)
How it was run: as §2

[16] = test system: CASKI; assay: as above; conditions: Gynecologic cancer cell panel viability, ATPlite luminescence, 48 h; activity change, negative = cytotoxicity: at 57.5 µM (top of the series)
How it was run: as §2

[17] = test system: WaGa; assay: qHTS assay to identify novel small-molecules to repurpose for Merkel cell carcinoma treatment (AID 1296009); conditions: MCC and control cell lines, CellTiter-Glo viability, 72 h; series mostly up to 46 µM; further: on the % scale 0 is the no-effect control and ±100 the full control effect; nearly all actives have a fitted effect of over 60% in size
How it was run: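 Luminescence from CellTiter-Glo, read 10 min after addition at room temperature, reported viability following a 72 hr, 37 degree celsius treatment with NPC or MIPE compounds in titration; values normalized to plate controls.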
Tags describe the fitted curve by direction and shape.

CC(=O)OC1CC(C)(C(=O)O)CC2C3=CC(=O)C4C5(C)CCC(OC6OC(C(=O)O)C(O)C(O)C6OC6OC(C(=O)O)C(O)C(O)C6O)C(C)(C)C5CCC4(C)C3(C)CCC12C (stereo not given)
inconclusive: Potency [4] 4.91 µM [inhibitor, partial curve, poor fit] | Potency [6] 0.631 µM [rising, partial curve, poor fit]
inactive: activity change, negative = viability loss [1] -3.77% [at 9.23 µM] | activity change, negative = cell killing [2] -8.59% [at 9.23 µM] | max response [3] -2.54% | activity change, negative = cytotoxicity [5] 10.4% [at 11.6 µM] | activity change, negative = cytotoxicity [7] 7.86% [at 11.6 µM] | activity change, negative = cytotoxicity [8] 0% [at 11.6 µM]

CC(C)c1ccc(-c2cc(=O)c3ccccc3o2)cc1
inconclusive: Potency [9] 23.1 µM [inhibitor, partial curve] | Potency [2] 16.3 µM [inhibitor, partial curve, poor fit] | Potency [3] 29.1 µM [inhibitor, single point] | Potency [4] 14.6 µM [inhibitor, partial curve] | Potency [6] 39.8 µM [cytotoxic, single point] | Potency [10] 20 µM [cytotoxic, partial curve] | Potency [11] 22.4 µM [cytotoxic, partial curve, poor fit] | Potency [7] 35.5 µM [cytotoxic, single point] | Potency [13] 14.1 µM [cytotoxic, partial curve] | Potency [14] 11.2 µM [cytotoxic, partial curve] | Potency [8] 25.1 µM [cytotoxic, partial curve, poor fit] | Potency [15] 35.5 µM [cytotoxic, single point]
active: Potency [1] 23 µM | Potency [5] 11.2 µM | Potency [12] 8.91 µM

C=C1/C(=C/C=C2\CCC[C@]3(C)[C@@H]([C@H](C)CC[C@@H](O)C(C)(C)O)CC[C@@H]23)C[C@@H](O)C[C@@H]1O
inconclusive: Potency [3] 29.1 µM [inhibitor, single point] | Potency [4] 20.6 µM [inhibitor, single point] | Potency [5] 39.8 µM [cytotoxic, partial curve, poor fit] | Potency [6] 35.5 µM [cytotoxic, single point] | Potency [11] 39.8 µM [cytotoxic, single point] | Potency [7] 39.8 µM [cytotoxic, single point] | Potency [12] 7.08 µM [rising, single point] | Potency [13] 39.8 µM [cytotoxic, single point] | Potency [14] 39.8 µM [cytotoxic, single point] | Potency [8] 28.2 µM [cytotoxic, single point] | Potency [15] 31.6 µM [cytotoxic, single point]

CCn1nc(C2CCN(C(=O)CCO)CC2)nc1-c1cnc(N)c(-c2nnc(C(C)(C)C)o2)n1
inconclusive: Potency [9] 20.6 µM [inhibitor, partial curve] | Potency [4] 29.1 µM [inhibitor, single point] | Potency [6] 12.6 µM [cytotoxic, partial curve] | Potency [16] 2 µM [cytotoxic, partial curve, poor fit] | Potency [14] 1 µM [cytotoxic, full curve] | Potency [15] 11.2 µM [cytotoxic, partial curve, poor fit]
active: Potency [1] 164 nM and 296 nM | Potency [8] 1.78 µM
inactive: max response [3] -9.09% | Potency [10] | Potency [12]

CC(C)Cn1cnc2c1c(=O)n(C)c(=O)n2C
inactive: Potency [2] | outcome [3] | max response [4] -0.637% | Potency [17]
inconclusive: Potency [11] 31.6 µM [cytotoxic, single point]

NC(=O)c1cccc2[nH]c(-c3ccc(C4CCCN4)cc3F)nc12 (stereo not given)
inactive: outcome [3]
active: Potency [2] 18.3 µM | Potency [5] 17.8 µM | Potency [6] 10 µM | Potency [10] 15.8 µM | Potency [7] 12.6 µM | Potency [12] 11.2 µM | Potency [8] 14.1 µM | Potency [15] 12.6 µM
inconclusive: Potency [1] 29 µM [inhibitor, single point] | Potency [4] 29.1 µM [inhibitor, single point] | Potency [16] 12.6 µM [cytotoxic, partial curve] | Potency [11] 39.8 µM [cytotoxic, single point] | Potency [13] 8.91 µM [cytotoxic, partial curve, poor fit] | Potency [14] 20 µM [cytotoxic, partial curve, poor fit]
